Among the data in the supplement of paper PMC4967469 are AUC and IC50 values, retold here.

A lower IC50 marks a more sensitive line; fits outside the tested doses are given as limits. AUC is the area under the same curve over the 256-fold range up to the top dose, as a fraction; the more sensitive the line, the further below 1. For part of these data: Any top dose called inferred is not printed in the source and was worked back from the curve model. For part of these data: Where an entry number is given, a second screen of the drug exists; the two often differ. Some results are limits rather than exact numbers.

Assay in all cases: Viability of human cancer cell lines after 72 h of drug (GDSC screen)
Compound in experiment [1]: CC1(C)CC(=O)c2c(C(F)(F)F)nn(-c3ccc(C(N)=O)c(N[C@H]4CC[C@H](O)CC4)c3)c2C1 [SNX-2112]
The settings on record: top dose 2.56 µM. The protocol: (§1)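 Human cancer cell lines in 384-well plates, medium with 10% serum, drug for 72 h over a 256-fold dose range (nine 2-fold or five 4-fold steps up to the top dose). Adherent lines were fixed and stained with the nucleic acid dye Syto60, suspension lines read with resazurin; signal relative to control wells, capped at 0 and 100%. One two-parameter sigmoid per drug and line, fitted in a mixed model over all curves with the slope shared within a line.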

Compound in experiment [2]: CC[C@]1(O)C[C@@H]2CN(CCc3c([nH]c4ccccc34)[C@@](C(=O)OC)(c3cc4c(cc3OC)N(C)[C@H]3[C@@](O)(C(=O)OC)[C@H](OC(C)=O)[C@]5(CC)C=CCN6CC[C@]43[C@@H]65)C2)C1 [Vinblastine]
The settings on record: top dose 0.1 µM; top dose inferred. The protocol:
as §1

Compound in experiment [3]: CN(C)C/C=C/C(=O)Nc1cc2c(Nc3ccc(F)c(Cl)c3)ncnc2cc1O[C@H]1CCOC1 [Afatinib]
The protocol: as §1

Compound in experiment [4]: CN(c1ncccc1CNc1nc(Nc2ccc3c(c2)CC(=O)N3)ncc1C(F)(F)F)S(C)(=O)=O [PF-562271]
The settings on record: top dose 2.56 µM; top dose inferred. Here is the method: as §1

Compound in experiment [5]: O=C(NC1CC1)c1cccc(-c2ccc3c(NC(=O)C4CC4)n[nH]c3c2)c1 [XMD13-2]
The settings on record: top dose 10.24 µM; top dose inferred. The protocol: as §1

The mark [6] stands for this setting: top dose 0.5 µM, screen: GDSC drug entry 1032.
The mark [7] stands for this setting: top dose 10 µM, screen: GDSC drug entry 1377, top dose inferred.

One may read the IC50 as the concentration that gives 50% inhibition. As to ONS-76 (medulloblastoma, adherent), the AUC in experiment [1] was 0.584; in experiment [2] it was 0.445; in experiment [3] (setting [6]), 0.984; in experiment [3] (setting [7]), 0.976; in experiment [4], 0.884; in experiment [5] it was 0.83. The IC50 was 276 nM in experiment [1]; 4.37 nM in experiment [2]; above 500 nM in experiment [3] (setting [6]); above 10000 nM in experiment [3] (setting [7]); above 2560 nM in experiment [4]; 7150 nM in experiment [5].
In the case of OPM-2 (myeloma, suspension), the AUC in experiment [1] amounted to 0.285; in experiment [2], 0.895; in experiment [3] (setting [6]), 0.994; in experiment [3] (setting [7]), 0.993; in experiment [4] it was 0.912; in experiment [5] it was 0.872. The IC50 in experiment [1] is 45.2 nM; in experiment [2], 81.6 nM; in experiment [3] (setting [6]) it was above 500 nM; in experiment [3] (setting [7]), above 10000 nM; in experiment [4] it was 2510 nM; in experiment [5], 6790 nM.
OS-RC-2 (kidney, adherent): the AUC in experiment [1] stood at 0.715; in experiment [2], 0.771; in experiment [3] (setting [6]), 0.948; in experiment [3] (setting [7]) it was 0.953; in experiment [4] it was 0.881; in experiment [5], 0.947. The IC50 was 866 nM in experiment [1]; 56.8 nM in experiment [2]; above 500 nM in experiment [3] (setting [6]); above 10000 nM in experiment [3] (setting [7]); above 2560 nM in experiment [4]; above 10200 nM in experiment [5].
With OV-90 (ovary, adherent), the AUC in experiment [1] is 0.641; in experiment [2], 0.677; in experiment [3] (setting [6]), 0.98; in experiment [3] (setting [7]), 0.912; in experiment [4], 0.961; in experiment [5], 0.973. The IC50 in experiment [1] was 439 nM; in experiment [2] it was 22.6 nM; in experiment [3] (setting [6]) it was above 500 nM; in experiment [3] (setting [7]), above 10000 nM; in experiment [4], above 2560 nM; in experiment [5], above 10200 nM.
Consider OVCAR-4 (ovary, adherent), for which the AUC in experiment [1] amounted to 0.945; in experiment [2], 0.685; in experiment [3] (setting [6]), 0.944; in experiment [3] (setting [7]), 0.846; in experiment [4], 0.896; in experiment [5] it was 0.93. In addition, the IC50 was above 2560 nM in experiment [1]; 26.7 nM in experiment [2]; above 500 nM in experiment [3] (setting [6]); above 10000 nM in experiment [3] (setting [7]); above 2560 nM in experiment [4]; above 10200 nM in experiment [5].
Turning to OVCAR-5 (ovary, adherent), the AUC in experiment [1] amounted to 0.652; in experiment [2], 0.654; in experiment [3] (setting [6]), 0.966; in experiment [3] (setting [7]), 0.912; in experiment [4], 0.788; in experiment [5] it was 0.946. The IC50 in experiment [1] is 461 nM; in experiment [2], 18.4 nM; in experiment [3] (setting [6]) it was above 500 nM; in experiment [3] (setting [7]), above 10000 nM; in experiment [4], 1370 nM; in experiment [5], above 10200 nM.
Take OVISE (ovary, adherent): the AUC came out at 0.837 in experiment [1]; 0.556 in experiment [2]; 0.738 in experiment [3] (setting [6]); 0.763 in experiment [3] (setting [7]); 0.91 in experiment [4]; 0.896 in experiment [5]. Also, the IC50 is above 2560 nM in experiment [1]; 9.34 nM in experiment [2]; 191 nM in experiment [3] (setting [6]); 4770 nM in experiment [3] (setting [7]); above 2560 nM in experiment [4]; above 10200 nM in experiment [5].
In the case of OVKATE (ovary, adherent), the AUC in experiment [1] was determined as 0.941; in experiment [2] it was 0.928; in experiment [3] (setting [6]), 0.953; in experiment [3] (setting [7]), 0.974; in experiment [4], 0.979; in experiment [5] it was 0.978. Moreover, the IC50 in experiment [1] was above 2560 nM; in experiment [2], above 100 nM; in experiment [3] (setting [6]), above 500 nM; in experiment [3] (setting [7]) it was above 10000 nM; in experiment [4], above 2560 nM; in experiment [5], above 10200 nM.
For OVMIU (ovary, adherent), the AUC was 0.471 in experiment [1]; 0.567 in experiment [2]; 0.382 in experiment [3] (setting [6]); 0.237 in experiment [3] (setting [7]); 0.881 in experiment [4]; 0.962 in experiment [5]. The IC50 in experiment [1] was 131 nM; in experiment [2] it was 9.97 nM; in experiment [3] (setting [6]), 13.6 nM; in experiment [3] (setting [7]), 87.1 nM; in experiment [4], above 2560 nM; in experiment [5], above 10200 nM.
Consider OVTOKO (ovary, adherent), for which the AUC in experiment [1] was 0.844; in experiment [2] it was 0.52; in experiment [3] (setting [6]), 0.77; in experiment [3] (setting [7]) it was 0.791; in experiment [4], 0.745; in experiment [5], 0.962. In addition, the IC50 in experiment [1] was above 2560 nM; in experiment [2], 7.21 nM; in experiment [3] (setting [6]), 244 nM; in experiment [3] (setting [7]), 5880 nM; in experiment [4] it was 998 nM; in experiment [5], above 10200 nM.
For “P12-ICHIKAWA (T-cell lymphoblastic leukaemia, suspension)”, the AUC in experiment [1] was 0.308; in experiment [2], 0.67; in experiment [3] (setting [6]), 0.994; in experiment [3] (setting [7]) it was 0.994; in experiment [4] it was 0.93; in experiment [5], 0.937. The IC50 in experiment [1] was 53.5 nM; in experiment [2], 16.5 nM; in experiment [3] (setting [6]), above 500 nM; in experiment [3] (setting [7]), above 10000 nM; in experiment [4], above 2560 nM; in experiment [5] it was above 10200 nM.
